# Results from ChEMBL document CHEMBL1201862, “PubChem BioAssay data set” (2004).
#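 Step 1: Grow cells in 96-well plates. Step 2: Expose to compound for 48 hours at 5 concentrations. Step 3: Interpolate endpoints linearly; if unreached, use highest concentration. GI50 marks 50% less growth.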 The source made the active and inactive calls. Cut-off read from the data, not from the text of the source: active = GI50 up to about 1.1 µM and inactive = higher.
# System: NCI-H322M
# Experiment: inhibition of tumour cell growth, NCI panel, 48 h
row,SMILES,GI50
1,CCOC(=O)c1cc(C2CCN(CC(C)CC)C2=S)c(-c2cc(C)no2)[nH]1 (centres undefined),inactive: > 100 µM
2,COC1=CC(=O)C(C2(OC(C)C)OC(=O)C(Cl)=C2Cl)=CC1=O (centres undefined),inactive: > 100 µM
3,CC1(C)OC[C@@H](/C=C\CCO[Si](c2ccccc2)(c2ccccc2)C(C)(C)C)N1C(=O)c1ccccc1,inactive: 20.8 µM
4,O=C1OC[C@@H]2Cc3c([nH]c4ccccc34)[C@@H](c3cc(O)c(O)c(O)c3)N12,inactive: 34.8 µM
5,CCN(CC)CCN(C)CC(C)(C)C(=O)/C=C/c1ccccc1,inactive: 13.4 µM
6,COc1cc(C)cc2c(-c3c(O)cc(O)c4c3C[C@H](C)N[C@H]4C)cc(-c3cc(-c4c(O)cc(O)c5c4C[C@H](C)N[C@H]5C)c4cc(C)cc(OC)c4c3O)c(O)c12,inactive: 37.4 µM
7,O=C(Nc1ccccc1)c1cc(S(=O)(=O)N2CCNNC2=O)c(S)cc1Cl,inactive: 32 µM
8,C=CCN1COc2c(cc3c4c(cccc24)C(=O)O3)C1,inactive: 19 µM
9,O=c1cccccc1NCCCNc1cccccc1=O,inactive: > 100 µM
10,Cc1c2ccnc(C(F)(F)F)c2cc2c1[nH]c1ccccc12,inactive: > 125 µM
11,O=[N+]([O-])c1ccccc1S(=O)(=O)c1cccc2c1NCCC2,inactive: 42.8 µM
12,CC1=NC(=Cc2ccc([N+](=O)[O-])cc2)C(=O)N1n1c(-c2ccccc2)nc2ccccc2c1=O,inactive: 58.6 µM
13,CC(C)=CCCC(C)C1=C(O)C(=O)C(C)=CC1=O (centres undefined),inactive: 31.1 µM
14,O=C(Cn1c2ccc(Br)cc2c2nc3ccccc3nc21)NNC(=O)NC1CCCCC1,inactive: > 100 µM
15,Cc1ccc(C(=O)NN=C(/N=N/c2cccc(C)c2)c2ccc(N(C)C)cc2)cc1,inactive: > 100 µM
16,C(=N\Cc1ccccc1)/c1ccccc1-c1ccccc1/C=N/Cc1ccccc1,inactive: > 10 µM
17,CN1C(=O)C2(c3ccccc31)C1CC3C(CO1)C1C2C3(CO)CN1C#N (centres undefined),inactive: > 100 µM
18,COc1cccc(-c2[nH]c3cc4c(cc3c(=O)c2C(=O)O)OCO4)c1,inactive: 72.8 µM
19,COc1cc2c(cc1OC)-c1c(cc(OC)c(OC)c1OC)C2=O,inactive: > 100 µM
20,CC(C)NC(=O)CN1CCN(C2=C(Cl)C(=O)c3c(O)ccc(O)c3C2=O)CC1,inactive: 4.2 µM
21,CN(C)C=C1C(=O)c2c(Br)sc(Br)c2C1=O,inactive: 23.8 µM
22,CN(C)CCNc1nc(-c2ccc3ccccc3c2)nc2[nH]cnc12,inactive: 11.9 µM
23,N#CC(NNC(=O)c1ccccc1O)c1ccc(O)cc1 (centres undefined),inactive: 9.55 µM

row,SMILES,GI50
1,Cc1ccc(C2NC(=O)c3ccccc3N2)s1 (centres undefined),inactive: 6.92 µM
2,CNC(=O)OCC1=C(COC(=O)NC)CN(c2ccc(OC)cc2)C1,inactive: > 100 µM
3,CCOC(=O)C1=C(O)C2C3CC4C2C(O)=C(C(=O)OCC)C2C1C3C42 (centres undefined),inactive: > 100 µM
4,CC(C)(C)[Si](C)(C)OCC1OC(n2cnc3c(NC(=O)c4ccccc4)ncnc32)CC1O (centres undefined),inactive: 47.1 µM
5,CCCN1CN(C(C(=O)N[C@@H]2C(=O)N3C(C(=O)O)=C(C)CSC23)c2ccccc2)CSC1=S (some centres undefined),inactive: > 100 µM
6,O=C1NC2(CCCCC2)C2=C1CCCCC2,inactive: > 100 µM
7,COc1ccc(-c2c3ccccc3c(-c3ccc(OCCCCCBr)cc3)c3ccccc23)cc1,inactive: > 100 µM
8,CONC(C)=O,inactive: > 100 µM
9,CCOc1ccc(NCC2CC/C(=C\c3ccc(Cl)cc3)C2=O)cc1 (centres undefined),inactive: > 100 µM
10,NC(=O)N/N=C\c1ccccc1OCc1cccc(COc2ccccc2/C=N\NC(N)=O)n1,inactive: 23.9 µM
11,O=c1c2cccnc2[nH]c2ccc3scnc3c12,inactive: 9.14 µM
12,CCOC(=O)C1=C(Nc2ccc(Cl)cc2Cl)OC/C1=N\NS(=O)(=O)c1ccc(C)cc1,inactive: > 100 µM
13,CC(C)C1=CC23CCC4C(C)(C(=O)O)CCCC4(C)C2CC1C1C(=O)N(c2ccc(N4C(=O)C5C6CC7C8(C)CCCC(C)(C(=O)O)C8CCC7(C=C6C(C)C)C5C4=O)cc2)C(=O)C13 (centres undefined),inactive: 5.09 µM
14,COc1cc(OC)cc(-n2c(N)c(-c3nc4ccccc4s3)c3ccc([N+](=O)[O-])cc3c2=O)c1,inactive: 92 µM
15,CCOC(=O)C(=O)/C(=C/N1C(=O)CC(=O)NC1=S)C(=O)OCC,inactive: > 100 µM
16,Cc1cc2c(c(N)c1C)C(=O)c1ccccc1C2=O,inactive: 16.9 µM
17,COc1ccc([C@]23CCN(S(=O)(=O)c4ccc(C)cc4)[C@H]2[C@H](CO)C2(CC3)OCC(C)(C)CO2)cc1OC,inactive: > 100 µM
18,CC(=O)/C=C/c1c[nH]c(=O)[nH]c1=O,inactive: 101 µM
19,COc1ccc(C2C(N)=NCC2c2ccccn2)cc1 (centres undefined),inactive: > 100 µM
20,COC1=CC(=O)N(C(=O)C2CSC(C(CO)NC(=O)c3csc(/C=N/O)n3)=N2)C1 (centres undefined),inactive: > 100 µM
21,COC1(OC)N=C(N)C2(C#N)C(c3ccccc3)NC3=C(CCC3)C12C#N (centres undefined),inactive: > 100 µM
22,O=C1CC(=O)NC(NN2C(=O)/C(=C/c3ccc(Cl)cc3)N=C2c2ccccc2)=N1,inactive: 21.1 µM
23,O=C1OI(C#Cc2ccccc2)c2ccccc21,inactive: 10.3 µM

row,SMILES,GI50
1,N#CCc1cccc(CC#N)c1Br,inactive: > 100 µM
2,CC(C)CCC1(CCN)C(=O)NC(=O)NC1=O,inactive: > 100 µM
3,CCOC(=O)c1ccc(C(=O)OCC)n1-c1cc2cc(c1)CSCc1cc(cc(-n3c(C(=O)OCC)ccc3C(=O)OCC)c1)CSC2,inactive: > 10 µM
4,CC(C)CNC(=O)Cn1c(-c2ccccc2)cc2ccccc21,inactive: > 100 µM
5,CCN(CCO)CCNc1ccc(C)c2sc3ccccc3c(=O)c12,inactive: 4.86 µM
6,N#Cc1c(NC(=S)NC(=O)c2ccccc2)nc2c(c1-c1ccccc1)CCC2,inactive: > 100 µM
7,CCOC(=O)[C@@H]1ON2O[C@@H](OC3CCCCC3c3ccccc3)C[C@H]3OC(=O)[C@@H]1C32 (some centres undefined),inactive: > 100 µM
8,COc1ccccc1/[N+]([O-])=C/c1ccccc1OC(=S)S,inactive: 73.1 µM
9,CCOC(=O)C1Cc2ccc3c4c(ccc(c24)C1)CC(C(=O)OCC)C3,inactive: > 100 µM
10,Nc1nc(Nc2ccc(Cl)cc2)sc1C(=O)c1c[nH]c2ccccc12,inactive: 18.9 µM
11,COC(=O)C(=O)C(C(=O)OC)C(=O)C(=O)Nc1c(C)cccc1C (centres undefined),inactive: > 100 µM
12,COc1ccc(C2=C(Cl)C(=O)N(c3ccc(OC)cc3OC)C(=O)C2(Cl)Cl)cc1,inactive: 19.3 µM
13,COc1cc(-c2coc3c(OC)c(OC4OC(COC5OC(C)C(O)C(O)C5O)C(O)C(O)C4O)c(OC)c(O)c3c2=O)cc(C)c1O (centres undefined),inactive: 15.1 µM
14,COc1cc(/C=C/c2sc3ccccc3[n+]2C)ccc1N(C)C,inactive: 20.4 µM
15,S=C1NCN2CCN(CC2)CNC(=S)C(=S)NCN2CCN(CC2)CNC1=S,inactive: 56.8 µM
16,CCOC(=O)C1Nc2ccccc2[C@H]2OCC[C@@H]12 (some centres undefined),inactive: > 100 µM
17,CCC(O)c1ccc(/N=C/c2ccccc2O)cc1 (centres undefined),inactive: > 100 µM
18,CCOC(=O)Cc1csc(N/N=C2\C(=O)Nc3ccccc32)n1,inactive: > 100 µM
19,Cc1cc(C2(c3cc(C)c(O)c(C(=O)O)c3)OS(=O)(=O)c3ccccc32)cc(C(=O)O)c1O,inactive: > 100 µM
20,C[C@H]1C2Cc3cc(O)ccc3[C@@]1(C)CCN2CCc1ccc(N)cc1,inactive: 32.7 µM
21,Cc1cc(=O)oc2c(CNC(C(=O)O)C(C)O)c(O)ccc12 (centres undefined),inactive: > 100 µM
22,CCOc1ccc(NC2=NC(=O)C(CC(=O)Nc3ccccc3[N+](=O)[O-])S2)cc1 (centres undefined),inactive: > 100 µM
23,COC(OC)C1(c2ccccc2)Oc2ccccc2C1=O (centres undefined),inactive: > 100 µM

row,SMILES,GI50
1,CSCC(CO)NC(=O)/C=C/c1c(C)[nH]c(=O)[nH]c1=O (centres undefined),inactive: 62.4 µM
2,O=C1C2CC=CCC2C(=O)N1n1c(Cc2ccccc2)n[nH]c1=O (centres undefined),inactive: > 100 µM
3,c1ccc(-c2nc3ccccc3n3c(CN4CCCCC4)nnc23)cc1,inactive: > 100 µM
4,CC1(C)CC2=NC(SSC3=C(C#N)C(c4ccc(Br)cc4)C4=C(O)CC(C)(C)CC4=N3)=C(C#N)C(c3ccc(Br)cc3)C2=C(O)C1 (centres undefined),inactive: > 100 µM
5,O=C(N/C(=C\c1ccc([N+](=O)[O-])cc1)c1nc2ccccc2[nH]1)c1ccccc1,inactive: > 100 µM
6,CNC(=O)NCCN1CC2CCC(CC2)C1,inactive: > 10 µM
7,COc1ccc(C2CCc3nc4nc(N)nc(N)c4cc3C2)cc1 (centres undefined),inactive: 33.7 µM
8,CCOC(=O)C(NC(=O)c1cccc(Cl)c1)(Nc1ccc(S(=O)(=O)Nc2cc(C)on2)cc1)C(F)(F)F (centres undefined),inactive: > 100 µM
9,OC1OC(c2ccco2)C(F)(F)C(F)(F)C1(F)F (centres undefined),inactive: > 100 µM
10,COc1ccc2c(c1)/C(=C/CCN(C)C)c1ccccc1S2,inactive: > 100 µM
11,CC1(C)CCC[C@@]2(C)C1CC[C@@]1(CO1)[C@@H]2/C=C\C(C=O)CC=O (some centres undefined),inactive: > 100 µM
12,O=C(/C=C/c1ccccc1)NC1C=Nc2ccc([N+](=O)[O-])cc2NC1=O (centres undefined),inactive: > 100 µM
13,CCCCCCCCCC[C@@H](O)[C@H]1CC[C@H]([C@H]2CC[C@H]([C@H](O)CCCCCCCCCC[C@@H]3CC(CC(C)=O)C(=O)O3)O2)O1 (some centres undefined),inactive: > 40.6 µM
14,COC(=O)/C=C/c1c(CC=C(C)C)ncn1C,inactive: > 80 µM
15,COc1ccc(N2C(=O)C(=O)N(c3ccccc3[N+](=O)[O-])C2=S)cc1,inactive: 69.5 µM
16,Cc1ccc(Cc2n[nH]c(=O)n2/N=C\CC/C=N\n2c(Cc3ccc(C)cc3)n[nH]c2=O)cc1,inactive: > 100 µM
17,CO/N=C1/c2sccc2[C@H](NC(=O)CNC(=O)OC(C)(C)C)[C@@H]1O,inactive: > 100 µM
18,COC(=O)c1c[nH]cc1CCCCc1c[nH]cc1C(=O)OC,inactive: > 100 µM
19,C[C@]12CC[C@H](O)CC1=CC[C@@H]1[C@@H]2CC[C@]2(C)C(=O)/C(=C/c3ccc([N+](=O)[O-])cc3)C[C@@H]12,inactive: 5.14 µM
20,NCCNCCCCCCNC(=O)c1cccc2cc3ccccc3nc12,inactive: 2.94 µM
